# Results as given in PubChem BioAssay AID1468 (National Center for Advancing Translational Sciences (NCATS), 2008).
# Out of some 280,000 compounds screened, about 1,100 (0.39%) were called active. Inconclusive means that the source gave no clear call. Such entries were picked first, then a sample of the others. The call rests on the fitted dose curve; in most records, active means well fitted inhibition curve with a large enough effect; inconclusive means small, poorly fitted or top-dose-only effect, or effect the other way; inactive means flat fitted curve, though single readings scatter. Potencies of inconclusive entries are left out as doubtful fits.
# Target: Microtubule-associated protein tau (Homo sapiens) (UniProt P10636)
# Experiment: qHTS for Inhibitors of Tau Fibril Formation, Fluorescence Polarization; further: nearly all actives have a fitted effect of over 55% in size
# Conditions: K18 P301L tau heparin fibrillization, Alexa594 FP, 6 h; series mostly up to 57.7 µM; activity, negative = inhibition: at the top concentration
# Summary of the method: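 Quantitative HTS format: compounds meet 15 uM recombinant K18 P301L tau and Alexa 594-tau tracer in 100 mM sodium acetate pH 7; 20 uM heparin triggers fibrillization at 37 C over 6 hr; FP gives the signal.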
# On the % scale 0 is the no-effect control and ±100 the full control effect; potency means the concentration at half of the fitted maximal effect; tags describe the fitted curve by direction and shape.
# UniProt P10636, sequence (P10636 whole entry, looked up): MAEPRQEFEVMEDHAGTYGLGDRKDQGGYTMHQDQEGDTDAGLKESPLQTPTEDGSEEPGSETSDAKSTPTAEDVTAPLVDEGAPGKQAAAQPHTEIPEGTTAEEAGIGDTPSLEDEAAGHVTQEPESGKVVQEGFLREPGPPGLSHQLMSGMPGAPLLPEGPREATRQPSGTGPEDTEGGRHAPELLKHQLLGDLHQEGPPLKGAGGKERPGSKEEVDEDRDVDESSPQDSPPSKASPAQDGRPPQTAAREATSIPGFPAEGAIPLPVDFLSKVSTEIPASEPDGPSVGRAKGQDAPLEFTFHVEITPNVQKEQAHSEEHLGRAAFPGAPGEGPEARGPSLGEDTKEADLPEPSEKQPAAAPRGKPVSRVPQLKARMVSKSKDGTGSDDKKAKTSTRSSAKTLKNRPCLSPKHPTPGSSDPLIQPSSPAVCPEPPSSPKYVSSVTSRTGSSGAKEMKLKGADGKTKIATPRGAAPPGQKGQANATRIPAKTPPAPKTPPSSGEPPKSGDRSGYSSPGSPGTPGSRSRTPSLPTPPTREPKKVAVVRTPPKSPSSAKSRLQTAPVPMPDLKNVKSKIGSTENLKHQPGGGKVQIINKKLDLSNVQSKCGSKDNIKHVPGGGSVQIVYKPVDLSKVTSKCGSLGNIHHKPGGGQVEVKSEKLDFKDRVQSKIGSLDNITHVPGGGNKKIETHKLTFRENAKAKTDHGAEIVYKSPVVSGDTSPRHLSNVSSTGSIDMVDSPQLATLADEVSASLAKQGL
SMILES,"activity, negative = inhibition",Potency
CCN(CC)C(=O)Cn1ncc2c([nH]c3ccc(C)cc32)c1=O,inactive: -12.6%,
C/C(=N/NC(=O)c1ccccn1)c1ccc(O)cc1,inactive: -2.12%,
CCOc1ccccc1CNC(=O)C1CCN(C(=O)N2CCOc3ccc(Cl)cc32)CC1,,"inconclusive [inhibitor, single point]"
COc1ccc(NC(=O)CSc2nnc(NC(=O)c3ccc(S(=O)(=O)N4CCOCC4)cc3)s2)cc1,,"inconclusive [inhibitor, partial curve, poor fit]"
COc1ccc(C2Nc3ccccc3-n3c(-c4ccccc4)c4c(=O)n(C)c(=O)n(C)c4c32)cc1 (stereo not drawn),inactive: -6.33%,
Cc1ccc(C)c(NC(=O)CCc2nc3cccnc3n2Cc2cccs2)c1,inactive: 7.4%,
CCOC(=O)c1sc2ccccc2c1S(=O)(=O)N1CCN(c2ccccc2F)CC1,,"inconclusive [inhibitor, partial curve, poor fit]"
Cc1ccc(O)c(N=CC2=C(O)c3ccccc3C2=O)c1,,"inconclusive [inhibitor, single point]"
COc1ccc(-c2cc(C(=O)Nc3cc(C)n(Cc4ccc(Cl)cc4)n3)no2)cc1OC,inactive: -14.5%,
Cc1ccccc1C(=O)NC(=S)NCC1CCCO1 (stereo not drawn),,"inconclusive [inhibitor, single point]"
COc1cc(OC)c(NC(=O)Cn2nc(C)n3cccc3c2=O)cc1Cl,,"inconclusive [inhibitor, partial curve]"
O=C(NNC(=O)c1cccnc1SCc1cccc([N+](=O)[O-])c1)c1ccccn1,,"inconclusive [inhibitor, single point]"
O=C(CCCn1c(=O)[nH]c2ccccc2c1=O)NC1CCCCCC1,inactive: 3.83%,
COC(=O)/C(=C\Nc1ccccc1)NC(=O)c1ccc(Cl)cc1Cl,,"inconclusive [inhibitor, partial curve]"
Cn1nnnc1SCC1=C(C(=O)O)N2C(=O)C(NC(=O)Cn3nc(C(F)F)cc3C3CC3)C2SC1 (stereo not drawn),,"inconclusive [inhibitor, single point]"
CCOC(=O)c1nnn(-c2nonc2N)c1COc1cc(C)c(Cl)c(C)c1,,"inconclusive [inhibitor, partial curve, poor fit]"
CCNS(=O)(=O)c1cc(-c2nnc(Nc3cccc(C(F)(F)F)c3)c3ccccc23)ccc1C,,"inconclusive [inhibitor, partial curve]"
COc1cc(O)cc(OC)c1OC,,"inconclusive [inhibitor, partial curve]"
COc1ccc(NS(=O)(=O)c2cccc(-c3n[nH]c(=S)n3Cc3ccccc3)c2)cc1,,"inconclusive [inhibitor, single point]"
N#CC1=C(N)C(C#N)(C#N)[C@H](c2ccsc2)[C@H]2COCC=C12,,"inconclusive [inhibitor, single point]"
O=[N+]([O-])c1ccc(/C=N/Nc2ccc3ccccc3c2)o1,,"inconclusive [inhibitor, partial curve]"
Cc1nc(COC(=O)c2cc(O)c3ccccc3c2O)cs1,,"inconclusive [inhibitor, single point]"
O=C(CN(Cc1ccccc1)S(=O)(=O)c1ccccc1)N/N=C/c1ccccc1[N+](=O)[O-],,"inconclusive [activator, partial curve]"

SMILES,"activity, negative = inhibition",Potency
CCc1cccc(CC)c1N(COC)C(=O)Cn1c(CC)nc2ccccc21,inactive: 5.7%,
COc1ccc2[nH]c(O)c(N=NC(=N)N)c2c1,,"inconclusive [inhibitor, full curve, poor fit]"
O=C(CN1CC(=O)Oc2ccccc21)OCC(=O)c1ccc(F)cc1,inactive: -10.9%,
COCc1cc(S(=O)c2ccc(Cl)cc2)nc(C)n1 (stereo not drawn),,"inconclusive [inhibitor, single point]"
O=C(O)c1ccc(N/N=C/C=C/c2ccccc2[N+](=O)[O-])cc1,inactive: 11.6%,
CCN1C(=O)C=CC1=O,,"inconclusive [activator, partial curve]"
NNc1nc(Nc2ccccc2)nc(N2CCCCC2)n1,inactive: -8.25%,
C[C@@]12C=Cc3occc3C1CC[C@@]13C[C@@H](CCC12)[C@@](O)(CO)C3 (stereo partly drawn),,active: 10 µM
COc1ccc(N2C(=O)CC(Nc3cccc(C(C)=O)c3)C2=O)cc1OC (stereo not drawn),inactive: 1.52%,
C=C(C)COc1ccc(-c2nc(N)ncc2Oc2ccc(OC)cc2)c(O)c1,,"inconclusive [inhibitor, partial curve]"
COc1ccc2[nH]c(=O)c(CN(CC3CCCO3)C(=O)Nc3ccc(F)cc3)cc2c1 (stereo not drawn),,"inconclusive [inhibitor, full curve, poor fit]"
CCn1nnc(-c2ccccc2NS(=O)(=O)c2ccc(S(=O)(=O)N(C)C3CCCCC3)cc2)n1,,"inconclusive [inhibitor, partial curve]"
Cc1cc(C)c(C#N)c(SCC2COc3ccccc3O2)n1 (stereo not drawn),,"inconclusive [inhibitor, single point]"
CCOc1ccc(-n2nnc3c(=O)n(CC(=O)c4ccccc4)cnc32)cc1,,"inconclusive [inhibitor, single point]"
CC1CCCN(S(=O)(=O)c2ccc(NC(=O)Cn3nnc(-c4ccccc4F)n3)cc2)C1 (stereo not drawn),,active: 20 µM
COc1ccc(C2C(=O)N(C3CCC(C)CC3)CC(=O)N2C2CCCCC2)cc1OC (stereo not drawn),inactive: -0.0777%,
O=C(NNc1cc(N2CCCC2)nc(N2CCCC2)n1)c1ccc([N+](=O)[O-])cc1,inactive: 7.22%,
O=[N+]([O-])c1ccc(N2CCN(S(=O)(=O)c3ccc(Cl)cc3)CC2)cc1NCc1cccnc1,,"inconclusive [activator, partial curve]"
CC(=O)N1C(=O)C2(C(C#N)=C(N)Oc3c2c(C)nn3-c2ccccc2)c2ccccc21 (stereo not drawn),,"inconclusive [inhibitor, partial curve]"
CN(C)S(=O)(=O)c1ccc(NC(=O)c2cc(-c3cccs3)nc3ccccc23)cc1,,"inconclusive [inhibitor, partial curve]"
COc1cccc(/C=C/C(=O)OCC(=O)Nc2cccc(S(=O)(=O)N3CCCCC3)c2)c1OC,,"inconclusive [inhibitor, partial curve]"
O=C(CN1C(=O)c2ccccc2S1(=O)=O)N1CCc2ccccc21,,"inconclusive [inhibitor, full curve, poor fit]"
Cc1c(C(=O)NCc2ccccc2Cl)sc2nc(-c3ccc(F)cc3)cn12,,"inconclusive [inhibitor, partial curve, poor fit]"

SMILES,"activity, negative = inhibition",Potency
O=C(NCc1ccc(F)cc1)c1cc(Sc2ccc(F)cc2F)nc2ccccc12,,"inconclusive [inhibitor, partial curve, poor fit]"
Cc1nc2ccc(NC(=O)c3cccs3)cc2c(=O)n1Cc1ccc(Cl)cc1,,"inconclusive [inhibitor, partial curve]"
COCCNc1ncnc2c1cnn2-c1cc(Cl)ccc1C,inactive: 0.873%,
COc1ccccc1CNC(=O)C(C)c1ccc([N+](=O)[O-])cc1 (stereo not drawn),inactive: -2.13%,
COC(=O)c1ccc(CN(C(C)=O)c2ccccc2)o1,inactive: -1.62%,
CCOC(=O)c1ccc(NC(=S)N(CCCN2CCCCCC2)Cc2ccco2)cc1,inactive: 0.392%,
CC1(C)CC(=O)C/C(=N/Nc2nc3ccccc3s2)C1,,"inconclusive [inhibitor, single point]"
CN(C)c1ccc(N=Nc2nc3ccccc3n2C)cc1,,"inconclusive [inhibitor, partial curve]"
COc1ccc(-c2nc(C)c(CCNC(=O)c3ccc(F)c(F)c3)s2)cc1,,"inconclusive [inhibitor, partial curve]"
O=C(/C=C/c1ccc(F)cc1)c1cc(Br)ccc1O,inactive: 1.01%,
CCc1ccc(-n2nc3ccc(NC(=O)c4cc(Cl)c(OC)c(Cl)c4)cc3n2)cc1,,"inconclusive [inhibitor, partial curve, poor fit]"
CCOc1ccc(CNC(=O)Cn2nc(C)n3cccc3c2=O)cc1,inactive: -14.7%,
Cc1ccc(CNC(=O)c2cccc(N3CCCS3(=O)=O)c2)cc1,inactive: 11.2%,
COC(=O)c1ccc(NC(=O)CSC2=Nc3ccccc3C3CC=NN23)cc1 (stereo not drawn),,"inconclusive [inhibitor, partial curve]"
O=C(C(Cc1ccccc1)NS(=O)(=O)c1cccc2cccnc12)N1CCc2ccccc21 (stereo not drawn),,"inconclusive [activator, partial curve]"
COc1ccc(Cl)cc1NC(=O)Nc1cccc([N+](=O)[O-])c1C,,"inconclusive [inhibitor, single point]"
COc1ccc(N(CC(=O)NC2CCCCC2)C(=O)CCCC(=O)Nc2ccccn2)c(OC)c1,,"inconclusive [activator, partial curve, poor fit]"
CCNc1ccc2noc3c2c1C(=O)c1ccccc1-3,,active: 28.2 µM
FC(F)(F)Oc1ccc(NC(=S)NCc2ccccc2)cc1,,"inconclusive [inhibitor, partial curve]"
CCCOc1ccc(S(=O)(=O)N2CCOCC2)cc1[N+](=O)[O-],,"inconclusive [inhibitor, full curve, poor fit]"
CCOC(=O)CSc1nc(N)c(C#N)c(-c2ccc(OC)cc2)c1C#N,,"inconclusive [inhibitor, partial curve]"
Cc1cc(C)c(S(=O)(=O)Nc2ccc(-c3ccc(N4CCCCC4)nn3)cc2)c(C)c1,inactive: -6.86%,
